# This is one part of the list.
# B1: 66274149_66274269_2242_3pUTR_ENSMUSG00000024098_ENSMUST00000024906|mouse|control|control (ssRNA)
# RNA: GGGAGUUCUACAGUCCGACGAUCUAAUGAGAUAUGCACUAGAGAAAAUAGCAAUUCUAUAAAAUUGAACCUGUGUAUUAUAGAUAUUUGUUUUUGAUUCAUGCUUGAAGGUGAGAAUUUUAUUACUAGGAAGGGCGUGUAGUACAACAGAGGAUUGAGCAUCA
# B2: chr9:114657494:114657495:+_ENSMUSG00000032434_ENSMUST00000035007|mus_hu|FALSE|FALSE (ssRNA)
# RNA: GGGAGUUCUACAGUCCGACGAUCCCAGCUGAGAAUGUAUCUGUCAAUCCUGACUAAGCCCAAUACAUGGGUGGUGACCCUGAGGUAGCCCAGAUGAUAUGCUCUGAAUUUUAGAUAGGUCUAAAUCACAAUGGUACAGUCUGACAACAGAGGAUUGAGCAUCA
# B3: chr11:121174221:121174222:+_ENSG00000109929_ENST00000392789|hu_mus|FALSE|FALSE (ssRNA)
# RNA: GGGAGUUCUACAGUCCGACGAUCGGUUGCACAGAAGAAGUAGAGAAUGUAAGCACCCAGGUUUGUGACAAUCAGGAGGCUAAUAGUUUGUCGGAUGAUGUUGUCCUCGGGCCACGUGGCUGGAUAUACAUACGGAGUGAAGAACAACAGAGGAUUGAGCAUCA
# B4: chr7:107985766:107985767:+_ENSMUSG00000029461_ENSMUST00000049053|mus_mus|FALSE|FALSE (ssRNA)
# RNA: GGGAGUUCUACAGUCCGACGAUCAUCCCUAGCAAAAUUUUUGUAGGUAAAAUGCCAGUAGUAGGACGGCUGCAUUUAAUGCUAAUUUACAGUGAGGUUCAGAGAAGUCCUUUCUGCUUCUCUGGGCCUCAGUUUCCUCAUCUGCAACAGAGGAUUGAGCAUCA
# B5: chr2:86849987:86849988:-_ENSG00000239305_ENST00000237455|hu_mus|FALSE|FALSE (ssRNA)
# RNA: GGGAGUUCUACAGUCCGACGAUCCACAAUGGCCUCAAAAAACCUGGCCAGGACGAACAGGACCAGGAAAUACAGGAGCAAGAAAAACAGCUUCAGCCACAUCUUCGCCCUCUUGGCGUCGCCAGGAGCCGGGACGCCGUGGACCAACAGAGGAUUGAGCAUCA
# B6: chr19:8913615:8913616:-_ENSMUSG00000071658_ENSMUST00000096259|mus_hu|mus_mus_mus_hu_False|28_108 (ssRNA)
# RNA: GGGAGUUCUACAGUCCGACGAUCAGGGGGGCACCAACUUCUGCCUGAAAUGGGUGCCCCACCCAGUAGGGAGUUGCAGCUGAAAGUAUCUGAUGCAGAAGCAGUGAAUGCAGAGAAGGAGGCCCCUGGGGAGGGCCAGGCCAGCAACAGAGGAUUGAGCAUCA
# B7: chr18:34474267:34474268:+_ENSMUSG00000005871_ENSMUST00000115781|mus_mus|motif|central (ssRNA)
# RNA: GGGAGUUCUACAGUCCGACGAUCUUCUGAUUCAGUUUCAUUCCCAUUGUCGUUUUCCUGAACUGGAGGCAUGAUUCUUAAUUCGGCAUCUUUCUGUAUAAAUGGCUCAUCCAGGCUCAGAGCACUUAGGCUGGAGGAACAAGACAACAGAGGAUUGAGCAUCA
# B8: chr22:32879901:32879902:+_ENSG00000100225_ENST00000397426|hu_mus|hu_hu_hu_mus_False|18_58 (ssRNA)
# RNA: GGGAGUUCUACAGUCCGACGAUCCUCUUCCAUACUCAUGGCAUCCUGAAUUGACUCAGCUUCAACAUUUUGACUAGGCCCUAACAUACUGUCAUCAGUCCAGGCAUCAAAUGGGGUUGCCUGUCCUUGGGAUGAAUCAGUCCCCAACAGAGGAUUGAGCAUCA
# B9: chr10:120830595:120830596:-_ENSG00000107581_ENST00000369144|hu_hu|motif|central (ssRNA)
# RNA: GGGAGUUCUACAGUCCGACGAUCUUUGAAAGCUUGCUGGGCAAUAUCAUGGUACAGGCGCUCUACUCUAGAAUUGUUUCGGAGAAGGUCCAAACACUGCCUGUAAGACUCCCACAGGAAUUUAACCCAUGGAGUUAAAAGUAACAACAGAGGAUUGAGCAUCA
# B10: chr1:163117127:163117128:-_ENSG00000143248_ENST00000313961|hu_mus|hu_hu_hu_mus_False|18_38 (ssRNA)
# RNA: GGGAGUUCUACAGUCCGACGAUCUGCUACAAAGGAUGUAACUCAACUCACAGGGCAACUUUUGGAAGCCUGACCAGAUGACUACUUGAUUAGCUCCUGAUAAAACUCAGAGCGCACAAAGCGAGGCAGAGAAUCCUUCUCCAUCAACAGAGGAUUGAGCAUCA
# B11: chr11:22899103:22899104:+_ENSMUSG00000007739_ENSMUST00000173867|mus_hu|FALSE|FALSE (ssRNA)
# RNA: GGGAGUUCUACAGUCCGACGAUCUAAAAUAUAGGCUCUCUCUUCUCGCAGCACUCGGUCCAUCUGGGCAUAGUCAGAAACCACUAUUUGAUUAUCCAUGUCUGUUUUGGGAGCAGAUAAGCAAAACUGAAUAAGCCCAAUCUUCAACAGAGGAUUGAGCAUCA
# B12: chr12:104022963:104022964:-_ENSMUSG00000041702_ENSMUST00000045652|mus_hu|FALSE|FALSE (ssRNA)
# RNA: GGGAGUUCUACAGUCCGACGAUCAGAAAAUACAUCUUAGUGUGCAAUCCAAUGCACAUGGAUUGGUAGAUGAAAGGUAAAAUGCAAAAAAGUAUGAAAAUACAGUCCUUUAAAUGUGGCAAUAAAGUUUAACAUACUGAUAUACAACAGAGGAUUGAGCAUCA
# B13: chr1:1337531:1337532:-_ENSG00000242485_ENST00000344843|hu_mus|FALSE|FALSE (ssRNA)
# RNA: GGGAGUUCUACAGUCCGACGAUCCACCACUCUGGAAAAGAUACCUUCAGGCUCCUUUCCAUCCCCCAAAGCUGCAGCAAAUCCCUCCUGCUGCCUCCGCUUAGCCAAUGCAGCCAAAGAUUUAAACGUCUUUGGUUCAUAGAUCAACAGAGGAUUGAGCAUCA
# B14: chrX:69798090:69798091:-_ENSMUSG00000031343_ENSMUST00000055966|mus_mus|mus_mus_mus_hu_False|38_48 (ssRNA)
# RNA: GGGAGUUCUACAGUCCGACGAUCAAGUCCCCGGGUUCUUGUCGUCUUGAUUCCCCUUGACCAGUGGUUCCAGGGAGAAUAUUAAUCAGGAGAAGAAGUACAACUCUGGUCAUGUAACAGUGACUUGUUUGUGUGAUUAUCAUCCAACAGAGGAUUGAGCAUCA
# B15: chr3:96579679:96579680:+_ENSMUSG00000028098_ENSMUST00000029740|mus_mus|FALSE|FALSE (ssRNA)
# RNA: GGGAGUUCUACAGUCCGACGAUCAGGCCGACUUGGUCCCCAAAAGUCAGUGUGAGUUUGGUGACCUCUCUCAUUGGCUCUAUUAUCUUGGUCCAGUGGAUUGCUACUUAGAAAUGGUCUAAAAUCUUGUAAAAACAUUGUGUGCAACAGAGGAUUGAGCAUCA
# B16: chr1:163112212:163112213:-_ENSG00000143248_ENST00000313961|hu_hu|motif|central (ssRNA)
# RNA: GGGAGUUCUACAGUCCGACGAUCUUUAUUUAUCCAGAAGCAUGAGUCACAUAGUACAUAAAGUAUUGAAUACAAAAUUCGGAAGAUAAACACAAUUUUUCUUGAAUUUAAAAUAUAUGGGAUAAAUGCUUACAAAUGGAUUUACAACAGAGGAUUGAGCAUCA
# B17: chr13:77182921:77182922:-_ENSMUSG00000021597_ENSMUST00000151524|mus_mus|FALSE|FALSE (ssRNA)
# RNA: GGGAGUUCUACAGUCCGACGAUCAGUAUGCACUCCAGGACAUACAUUUAGAUUCUCAGGCAGCUCUUUAAGAACACUUGGGAGCUUCUUUAAUGUCUUUAUAUUCCUAGCAUAAACAUCCAAUAACCAGUCAGUAUGUGCAUUCAACAGAGGAUUGAGCAUCA
# B18: chr19:8913615:8913616:-_ENSMUSG00000071658_ENSMUST00000096259|mus_hu|mus_mus_mus_hu_False|8_18 (ssRNA)
# RNA: GGGAGUUCUACAGUCCGACGAUCAGGGUACCAAAACCUUCUGCCUGAAAUGGGUGCCCCACCCAGUAGGGAGUUGCAGCUGAAAGUAUCUGAUGCAGAAGCAGUGACUAUACGAAAGGUCACUAGAGAUGCUCAGAAGGCCAGCAACAGAGGAUUGAGCAUCA
# B19: chr7:66532262:66532263:+_ENSMUSG00000025326_ENSMUST00000107537|mus_mus|motif|central (ssRNA)
# RNA: GGGAGUUCUACAGUCCGACGAUCUCCUUGAACUAGGCUGUAAAGAACAGUGAUUCUUCUUUCACUGUACAUGCGAAUUCGGUUGUCAUAAUAUAAUCCCAGAUUCUUUGUGACAGCAUUCAAUAUAAAGGGACAUGUCAUAAACAACAGAGGAUUGAGCAUCA
# B20: chr8:95500983:95500984:-_ENSG00000164944_ENST00000437199|hu_hu|hu_hu_hu_mus_True|28_88 (ssRNA)
# RNA: GGGAGUUCUACAGUCCGACGAUCAGAACACAUCUAUCGAGUAAAGGGAGCGUACAUACGGCCUCUACCACUGCCUCCACUAACAAACUUUCCUCUCGAGCCUCCACCUGCCGCUAUUGUACUAGCCCAGGACGGUCCCAGGCCCAACAGAGGAUUGAGCAUCA
# B21: chr8:95500983:95500984:-_ENSG00000164944_ENST00000437199|hu_hu|hu_hu_hu_mus_True|8_78 (ssRNA)
# RNA: GGGAGUUCUACAGUCCGACGAUCAGAACACAUCUAUCGAGUAAAGGACCGUACAUGGACGACCUCUCCACUGCCUCCACUAACAAACUUUCCUCUCGAGCCUCCACUGCCGCUAUUUGUACUAGCCCCAGGAAGGUCCAGGCCCAACAGAGGAUUGAGCAUCA
# B22: chr14:78183846:78183847:+_ENSG00000119705_ENST00000557342|hu_hu|hu_hu_hu_mus_False|1_58 (ssRNA)
# RNA: GGGAGUUCUACAGUCCGACGAUCUCUCAGAAAUCUUUCUUCAUCAGAUGUUUGAGCUCCGUGCAAAGCCUUUGCUCUUCUAGUGUGAACGUGGAUCUAUGGGAGGGAAAGCACUGUCAGAAAAGGUAAUUUUUUUUUCCGAAGCAACAGAGGAUUGAGCAUCA
# Biological target: T1, UNK ZnF1-3 (human, UniProt Q9C0B0 31-174)
# T1 sequence: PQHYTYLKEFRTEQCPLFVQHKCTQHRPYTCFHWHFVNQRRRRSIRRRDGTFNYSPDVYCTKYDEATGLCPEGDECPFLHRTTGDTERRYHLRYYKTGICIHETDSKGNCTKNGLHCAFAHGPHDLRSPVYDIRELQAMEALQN
# Experiment: nsRBNS (natural sequence RNA bind-n-seq); RBNS binding buffer (assumed for nsRBNS): 25 mM Tris pH 7.5, 150 mM KCl, 3 mM MgCl2, 0.01% Triton X-100, 500 ug/ml BSA, 20 U/ml SUPERase-In, 4 C; UNK is unkempt and MSI1 is Musashi-1; names of the RNAs are library labels; protein concentration not given here; high values mean tight binding
row,Binder,binding signal
1,B1,1.77 enrichment R
2,B2,0.906 enrichment R
3,B3,1.98 enrichment R
4,B4,0.746 enrichment R
5,B5,1.09 enrichment R
6,B6,1.17 enrichment R
7,B7,0.923 enrichment R
8,B8,1.09 enrichment R
9,B9,0.841 enrichment R
10,B10,1.15 enrichment R
11,B11,1.09 enrichment R
12,B12,1.11 enrichment R
13,B13,1.02 enrichment R
14,B14,0.763 enrichment R
15,B15,1.02 enrichment R
16,B16,2.69 enrichment R
17,B17,0.963 enrichment R
18,B18,1.05 enrichment R
19,B19,0.479 enrichment R
20,B20,2.04 enrichment R
21,B21,1.46 enrichment R
22,B22,1.09 enrichment R
